# “And” between values parts separate entries of the source, which are not always exact repeats. Equal values may be shown once. Inconclusive results, whose numbers are uncertain, are shown with a selection of clear calls. For part of these data: A potency beside an inconclusive call is a rough fit, not a confirmed value. Where a structure was tested more than once in an assay, its records may differ in their call. The source made the active and inactive calls. Unless noted, calls follow the shape of the dose curve; as a rule, active = well fitted curve in the direction sought with a large enough effect in the repeat runs; inconclusive = weak or mixed curves; inactive = no such curve, though single readings can be large; an effect the other way counts as inactive or inconclusive.
# Experiments:
# [1] = qHTS assay for identifying genotoxic compounds that show differential cytotoxicity against isogenic chicken DT40 cell lines with known DNA damage response pathways - Rad54/Ku70 mutant cell line (AID 743015); conditions: DT40 Rad54/Ku70 mutant viability, CellTiter-Glo, 40 h; activity change, negative = cytotoxicity: at 66.8 µM (top of the series) unless noted; also: nearly all actives have a fitted effect of over 60% in size
# [2] = qHTS assay to identify small molecule antagonists of the thyroid receptor (TR) signaling pathway (AID 743065); also: nearly all actives have a fitted effect of over 55% in size
# Method in brief: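 GH3.TRE-Luc rat pituitary cells (two TREs driving luciferase) were dosed with compound, then stimulated with 1 nM T3 (final) for 23.5 h at 37 C. ONE-Glo luminescence was the read-out, with CellTiter-Fluor fluorescence as the cytotoxicity counter-screen.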
# [3] = qHTS assay to identify small molecule antagonists of the androgen receptor (AR) signaling pathway - cell viability counter screen (AID 743033; also: nearly all actives have a fitted effect of over 45% in size; as to activity change, negative = cytotoxicity: % is scaled to controls: 0 for no effect and ±100 for the full control effect)
# [4] = molecular target: Androgen receptor (Homo sapiens) (UniProt P10275); assay: qHTS assay to identify small molecule antagonists of the androgen receptor (AR) signaling pathway (AID 743035; active = well fitted inhibition curve with a large enough effect in the signal ratio in the repeat runs, not every such curve was filed as active; inconclusive = weak or mixed curves, or effect the other way; inactive = no such curve, though single readings can be large or run the other way; the % refers to the signal ratio; as to activity change, negative = inhibition: % is scaled to controls: 0 for no effect and ±100 for the full control effect); conditions: HEK293 AR-UAS-bla, R1881-stimulated, beta-lactamase FRET, 16 h; activity change, negative = inhibition: at 58.5 µM (top of the series) unless noted
# Sequence of UniProt P10275 (P10275 whole entry, looked up): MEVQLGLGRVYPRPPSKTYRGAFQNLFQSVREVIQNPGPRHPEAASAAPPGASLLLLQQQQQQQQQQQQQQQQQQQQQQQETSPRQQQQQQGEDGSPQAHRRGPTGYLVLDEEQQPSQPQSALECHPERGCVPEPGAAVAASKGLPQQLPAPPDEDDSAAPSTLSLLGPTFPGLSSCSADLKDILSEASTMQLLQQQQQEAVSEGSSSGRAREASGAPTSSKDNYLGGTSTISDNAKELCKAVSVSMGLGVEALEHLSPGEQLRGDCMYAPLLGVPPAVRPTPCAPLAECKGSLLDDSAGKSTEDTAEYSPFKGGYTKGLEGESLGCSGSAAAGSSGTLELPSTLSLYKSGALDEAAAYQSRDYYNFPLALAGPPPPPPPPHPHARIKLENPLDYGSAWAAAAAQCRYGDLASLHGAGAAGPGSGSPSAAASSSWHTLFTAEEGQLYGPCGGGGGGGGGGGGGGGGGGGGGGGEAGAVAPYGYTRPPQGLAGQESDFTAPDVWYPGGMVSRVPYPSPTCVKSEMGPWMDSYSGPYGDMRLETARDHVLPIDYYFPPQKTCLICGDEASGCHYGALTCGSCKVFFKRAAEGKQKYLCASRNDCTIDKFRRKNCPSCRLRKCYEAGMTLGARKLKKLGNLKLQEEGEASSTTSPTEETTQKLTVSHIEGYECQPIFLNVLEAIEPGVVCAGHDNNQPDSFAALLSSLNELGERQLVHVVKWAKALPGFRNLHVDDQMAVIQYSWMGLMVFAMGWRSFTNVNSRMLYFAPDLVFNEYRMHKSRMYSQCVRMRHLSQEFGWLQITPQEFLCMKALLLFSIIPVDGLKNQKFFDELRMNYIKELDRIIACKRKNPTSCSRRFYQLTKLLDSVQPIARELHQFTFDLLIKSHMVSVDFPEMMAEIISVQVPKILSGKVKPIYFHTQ
# Method in brief: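 Quantitative HTS of the Tox21 10K library used HEK293 AR-UAS-bla cells stimulated with R1881 alongside compound for 16 h at 37C, followed by beta-lactamase FRET detection (LiveBLAzer B/G, 2 h, RT).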
# [5] = molecular target: Androgen receptor (Homo sapiens) (UniProt P10275); assay: qHTS assay to identify small molecule agonists of the androgen receptor (AR) signaling pathway (AID 743036; active = well fitted activation curve with a large enough effect in the signal ratio in the repeat runs, with a control signal flat, not every such curve was filed as active; inconclusive = weak or mixed curves, or effect the other way; inactive = no such curve, though single readings can be large or run the other way; the % refers to the signal ratio; as to activation: % is scaled to controls: 0 for no effect and ±100 for the full control effect); conditions: HEK293 AR-UAS-bla GripTite, beta-lactamase FRET ratio, 16 h; activation: at 62.4 µM (top of the series) unless noted
# Method in brief: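 Beta-lactamase under UAS control, stably integrated in HEK293 GripTite cells, reports receptor activation. After 16 h compound treatment, cells received FRET substrate for 2 h at room temperature before fluorescence reading.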
# [6] = qHTS assay to identify small molecule antagonists of the androgen receptor (AR) signaling pathway using the MDA cell line - cell viability counter screen (AID 743041; also: nearly all actives have a fitted effect of over 45% in size); conditions: MDA-kb2 viability, CellTiter-Fluor, 16 h, cells co-treated with R1881 androgen agonist; viability change, negative = cytotoxic: at 70.3 µM (top of the series) unless noted
# Method in brief: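 Compound exposure lasted 16 h at 37C in MDA-kb2 AR-luc cells stimulated with R1881. Protease-based CellTiter-Fluor reagent was applied for the final 30 min and fluorescence measured.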
# [7] = molecular target: Androgen receptor (Homo sapiens) (UniProt P10275); assay: qHTS assay to identify small molecule antagonists of the androgen receptor (AR) signaling pathway using the MDA cell line (AID 743042; also: nearly all actives have a fitted effect of over 55% in size)
# Method in brief: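 MDA-kb2 breast carcinoma cells carrying MMTV-luciferase (AR/GR responsive) were co-treated with compounds and the agonist R1881 for 16 h at 37C. Inhibition read as ONE-Glo luminescence; CellTiter-Fluor fluorescence measured in parallel for cytotoxicity.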
# [8] = qHTS assay to identify small molecule antagonists of the thyroid receptor (TR) signaling pathway - cell viability counter screen (AID 743064); conditions: GH3.TRE-Luc viability, CellTiter-Fluor, 24 h; activity change, negative = cytotoxic: at 70.3 µM (top of the series) unless noted; also: nearly all actives have a fitted effect of over 50% in size
# Method in brief: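 Compounds were tested on GH3.TRE-Luc cells in the presence of T3 at 1 nM final. Following 23.5 h at 37 °C, cell viability was quantified by CellTiter-Fluor.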
# Potency is read from the fitted curve at half-maximal effect; tags tell the direction and shape of the fitted curve or compound fluorescence and quenching.
structure (smiles),measurement,setting,value
CCCCC/C(C=O)=C\c1ccccc1,Potency,[1],"inconclusive: 38.6 µM [cytotoxic, partial curve]"
same,Potency,[2],inconclusive: 61.2 µM [inhibitor]
Nc1cc(Cl)c(-c2cc(Cl)c(N)cc2Cl)cc1Cl,Potency,[3],active: 43.6 µM and active: 49 µM
same,Potency,[4],active: 21.9 µM and active: 17.4 µM
same,Potency,[5],"inconclusive: 24.5 µM [cytotoxic, partial curve]"
same,activation,[5],inconclusive: 18.5%
same,Potency,[6],"active: 61.1 µM and inconclusive: 68.6 µM [cytotoxic, single point]"
same,Potency,[7],active: 54.4 µM and active: 68.6 µM
Nc1ccc2c(c1)C(=O)c1ccccc1C2=O,Potency,[3],active: 48.1 µM
OCCOCCOCCOCCO,Potency,[3],inactive
CCCCCCCCCOC(=O)c1ccc(O)cc1,Potency,[3],"inconclusive: 30.5 µM [cytotoxic, partial curve]"
same,Potency,[4],active: 24.2 µM
same,Potency,[5],"inconclusive: 27.1 µM [falling, partial curve, poor fit]"
same,Potency,[6],"inconclusive: 75.9 µM [rising, partial curve, poor fit]"
same,Potency,[7],"inconclusive: 30.2 µM [inhibitor, full curve, poor fit]"
same,Potency,[8],"inconclusive: 26.9 µM [cytotoxic, single point]"
CC1=CC(=O)c2ccccc2C1=O,Potency,[3],active: 21.9 µM
same,Potency,[4],inactive and inconclusive: 21.9 µM
same,Potency,[5],inconclusive: 19.5 µM [fluorescent]
same,activation,[5],inconclusive: 7.28%
same,Potency,[8],"inconclusive: 33.5 µM [cytotoxic, single point]"

# Source: PubChem BioAssay (Tox21)
